# According to the RNAGym collection of RNA variant scans (doi:10.7554/elife.90254):
# Read counts are not given, so values of variants with three or more changes are uncertain.
# B1: LINE1-full (parent)
# chain: UACGUAGGUGGUUUUCCCCUGAUAGUGCUAAGGGGGCCUGGAAGUUUGGACUGGGCAGAGCUCAACACAGCGUGGCAAAGUGGCUGUGGCUAGACUGCCUCUCUGGAUUCCUCGUCACUCAGCAGGGCAUCUCUGAGAGAAAUGCC
# Variants of: B1
# Assay: self-cleavage, relative activity (ratio to wild type); higher = more cleavage; in vitro, sequencing; the parent is a self-cleaving ribozyme
row,Variant,self-cleavage
1,U9A U29C A142G,1.69
2,G8A U23C U26C U47A A129G,2.3
3,A6G U52A C90A U130C,0.06
4,A6U A142G U143A,1.04
5,G7C U39A U112A,2.42
6,U9A U47A U96A,0.13
7,G8A U46C U132C,1.82
8,U9A U73A U87C U115A,0.09
9,U9A U26C G122A,1.54
10,G7A U62A A64G,0.1
11,G7A U26C G33A U45A A69G A94G,0.19
12,U9A G105A U108C,1.22
13,A6U U12G U87A A129G A140G,0
14,U9A U26A A50G A94U A138G,0.78
15,A6U U46A A69G U100A U104A,0.34
16,U9A A79G A140G U143C,0.66
17,A6U A117G U134C,0.89
18,A6G U14C U26G U39C U45C A124G,0.84
19,U9A U62C A136G,0.12
20,U9A U12C U39A,0.66
21,A6U A77G U87A A92G U100A U119C U132A,0

row,Variant,self-cleavage
1,A6G U26C A64U A78U U104C A138G,2
2,A6U U14A A107G U112A,0.26
3,G7U A31U U45C U81A,2.59
4,A6U G25A A117U A136G,1.5
5,U9A A50G A121G,0.66
6,G7U U26C U96C,0.24
7,A6G U13C U26C A141G,0.66
8,A6U G41C A50G U132C,0.66
9,U9A U26C U52C A141G,1.53
10,U9A C68U A138G U143C,0.14
11,G7A A43G A57G,0.59
12,A6U A22G G34A U47C,0.74
13,G7U A59U A141U,1.03
14,G7A A79G U115C,0.44
15,A6U G40A A59G U130C,0.11
16,U9A C16U U46C A78G,0.82
17,U9A U26A U100C,1.25
18,G7A C16U U130C,0.91
19,U9A U29C C110A,0.82
20,U9A U52A G83A U102C U132C,0.96
21,G7C G21A U104C A136G,1.27

row,Variant,self-cleavage
1,U9A U39C A42U U96C,0
2,U9A G48U U96C A121G,0
3,G7A U14C C17U C56U,0.33
4,U9A A24G U45C U62C,0.46
5,A6U U14C G33U A79G G83C,1.15
6,U9A U39C A64U A121U,0.3
7,G7A U9A U119A A124G,0.21
8,A6U U12G A43G,0
9,G7A U23C A142G,1.56
10,A6G U26C U62A,0.18
11,G8A U14C A22G,1.34
12,G7U U39C A140G,1.2
13,G7A U20A U47C,2.02
14,G7A U52C A65G U85C,0
15,U9A G60A A77U U100A U104C,0.05
16,G7A A67C U112A,0.03
17,A6U A43G U52A,1.81
18,A6G U73A A77U,1.14
19,U9A G122U A140U A141G,1.42
20,U9A U81C C84G U132C U143C,0.7
21,U9A G27A A78G U130C,1.07

row,Variant,self-cleavage
1,G7A U12C G82A U102C,2.26
2,U9A U13A A57G U132C,0.38
3,U9A A64C A67G U81A A129G,0
4,U9A U13C C120A,0.83
5,U9A A67U A129G,0
6,A6U U132C U134A A136U,0
7,A6U A64G C90G U112A,0.27
8,U9A A22U C51U U100C,1.23
9,A6G U26C C95U U115C,0.62
10,U9A U13A U23A A117G C123U,1.04
11,U9A U13A G58A G72A A136U,0.07
12,A6G U45C A50U C99U U130C,0.09
13,G7C A64U A78U U130C A140G,0.85
14,U9A U14C U52G,0.68
15,U9A G32A A64G U100C C146U,0.53
16,G7A U26C A69G U73A,0.08
17,U9A U23C A43G,0.89
18,U9A U15C U62C,0.18
19,U9A U85C U96G U104C,0.84
20,U9A U20A A22G G34A A57G G86A,0.13
